Measured values taken from publication PMC8869358, “High-Throughput Chemical Screening and Structure-Based Models to Predict hERG Inhibition” (Biology, 2022).
Counter-ions that a name gives are not always drawn.

Target: T1, hERG (Homo sapiens, UniProt Q12809)
Assay: not given
Details: not given
Experimental: The hERG-U2OS cell line was purchased from Codex BioSolution, Inc. (Gaithersburg, MD, USA). All the cell culture reagents were obtained from Invitrogen (Life Technologies, Madison, WI, USA). The hERG-U2OS cells were cultured in DMEM with Glutamax containing 10% fetal bovine serum (FBS), 1% of Non-Essential AA (NEAA), 50 U/mL penicillin, 50 μg/mL streptomycin, and 1 µg/mL puromycin. The cells were maintained at 37 °C under a humidified atmosphere and 5% CO2.
A FluxORTM thallium flux assay was performed in hERG-U2OS cells with stable hERG expression, as previously described. In this assay, thallium ions are used as surrogates for K^+ ions to monitor the activity of the hERG K^+ channel. […] The hERG-U2OS cells suspended in culture medium were dispensed at 1000 cells/well/3μL into 1536-well, black wall/clear-bottom plates using a Multidrop Combi dispenser (Thermo Fisher, Waltham, MA, USA). After the assay plates were incubated at 37 °C overnight, 3 μL of Loading Buffer provided from FluxOR II Potassium Ion Channel Assay Kit (Life Technologies, Carlsbad, CA, USA) was added to each assay well. The assay plates were then incubated at room temperature in the dark for 1 h, followed by the addition of 23 nL of compound, dissolved in DMSO, DMSO only, or positive control, to the assay plate. Each compound was tested at 15 concentrations in three independent runs. […]

T1 sequence (Q12809 whole entry): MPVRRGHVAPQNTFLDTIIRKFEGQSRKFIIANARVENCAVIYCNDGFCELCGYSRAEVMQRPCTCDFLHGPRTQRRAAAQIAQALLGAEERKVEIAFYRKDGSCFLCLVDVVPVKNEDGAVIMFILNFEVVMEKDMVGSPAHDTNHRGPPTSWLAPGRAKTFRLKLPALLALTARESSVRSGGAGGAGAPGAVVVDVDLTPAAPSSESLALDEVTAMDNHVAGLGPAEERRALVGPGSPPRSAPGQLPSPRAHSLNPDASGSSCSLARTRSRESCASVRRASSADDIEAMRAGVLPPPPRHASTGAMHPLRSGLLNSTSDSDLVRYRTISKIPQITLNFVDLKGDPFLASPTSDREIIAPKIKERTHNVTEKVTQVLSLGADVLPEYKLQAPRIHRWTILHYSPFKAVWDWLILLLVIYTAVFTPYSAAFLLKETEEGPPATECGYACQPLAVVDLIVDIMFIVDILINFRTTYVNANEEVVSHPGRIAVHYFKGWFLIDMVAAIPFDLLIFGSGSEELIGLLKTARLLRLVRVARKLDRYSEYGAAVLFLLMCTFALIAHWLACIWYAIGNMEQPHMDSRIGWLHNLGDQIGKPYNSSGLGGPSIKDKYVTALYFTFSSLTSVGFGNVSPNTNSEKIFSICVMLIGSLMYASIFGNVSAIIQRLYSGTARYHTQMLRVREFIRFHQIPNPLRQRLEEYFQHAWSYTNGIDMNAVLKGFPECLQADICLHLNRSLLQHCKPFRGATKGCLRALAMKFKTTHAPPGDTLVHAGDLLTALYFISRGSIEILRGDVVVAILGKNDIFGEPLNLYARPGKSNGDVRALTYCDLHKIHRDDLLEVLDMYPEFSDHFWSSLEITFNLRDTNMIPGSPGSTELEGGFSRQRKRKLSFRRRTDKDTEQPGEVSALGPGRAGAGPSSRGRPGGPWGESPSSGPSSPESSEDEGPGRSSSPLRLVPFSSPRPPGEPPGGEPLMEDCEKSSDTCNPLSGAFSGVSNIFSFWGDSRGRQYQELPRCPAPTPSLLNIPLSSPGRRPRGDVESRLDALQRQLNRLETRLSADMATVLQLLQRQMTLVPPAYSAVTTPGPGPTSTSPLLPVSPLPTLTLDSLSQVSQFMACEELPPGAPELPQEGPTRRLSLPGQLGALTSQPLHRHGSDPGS

Structure (SMILES) | activity outcome for hERG inhibition in the assay
CN1CCC[C@@H]1CCO[C@](C)(c1ccccc1)c1ccc(Cl)cc1 [Clemastine] | showing activity against hERG
CC(C)(C)c1ccc(C(=O)CCCN2CCC(OC(c3ccccc3)c3ccccc3)CC2)cc1 [Ebastine] | showing activity against hERG

Target: T1, hERG
Assay: cell-based
Details: (-LOG10(IC50), µM)

Structure (SMILES) | IC50
CO[C@]12CC[C@@]3(C[C@@H]1C(C)(O)C(C)(C)C)[C@H]1Cc4ccc(O)c5c4[C@@]3(CCN1CC1CC1)[C@H]2O5 (some centres unmarked) [Buprenorphine hydrochloride] | 24.4 µM
CCCCCCCCCCCCCCCC[n+]1ccccc1 [Cetylpyridinium bromide] | 11 µM
CCCCCCCCCCCCCCCC[n+]1ccccc1 [Cetylpyridinium chloride] | 10.2 µM
C(=C\c1ccccc1)/CN1CCN(C(c2ccccc2)c2ccccc2)CC1 [Cinnarizine] | 0.817 µM
CCN(CC)CCOc1ccc(C(=C(Cl)c2ccccc2)c2ccccc2)cc1 [Clomiphene] | 3.13 µM
CN1CCC(=C2c3ccccc3C=Cc3ccccc32)CC1 [Cyproheptadine] | 12 µM
CCN(CC)CCOC(=O)C1(C2CCCCC2)CCCCC1 [Dicyclomine] | 8.17 µM
CN(C)CC/C=C1\c2ccccc2COc2ccccc21 [Doxepin hydrochloride] | 17.9 µM
Cc1ccccc1C(OCCN(C)C)c1ccccc1 (centres unmarked) [Orphenadrine dihydrogen citrate] | 25.5 µM
Cc1ccccc1C(OCCN(C)C)c1ccccc1 (centres unmarked) [Orphenadrine hydrochloride] | 23.6 µM
Clc1ccc(CSC(Cn2ccnc2)c2ccc(Cl)cc2Cl)cc1 (centres unmarked) [Sulconazole nitrate] | 7.86 µM
O=c1n(CCCN2CCN(c3cccc(Cl)c3)CC2)nc2ccccn12 [Trazodone hydrochloride] | 9.52 µM
